The whole screen tested about 39,000 compounds, of which about 220 (0.56%) showed activity. Some of the results follow.
tested on: Escherichia coli K-12 BW25113; assay: relative growth (OD600 normalised to plate interquartile mean) (fraction); higher = less growth inhibition, active = 0.2 or less; settings: 50 µM; LB; incubation time: overnight (16-24 h)
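Also: static incubation at 37 °C against the wild-type strain, values averaged over two biological replicates.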

SMILES | relative growth
CC1=C2C3OC(=O)C(C)C3CCC2(C)C=CC1=O (centres undefined) | inactive: 0.937
OCC(CO)N1CCC2(CCNCC2)CC1 | inactive: 0.998
C[C@H](CO)N1C[C@H](C)[C@@H](CN(C)C(=O)Oc2ccc3ccccc3c2)OCc2cn(nn2)CCCC1=O | inactive: 0.979
CC(=O)N[C@H]1C(=O)NC(=S)N(c2ccccc2)C1=O | inactive: 1.02
Cc1cccc2[nH]c(CCN)nc12 | inactive: 0.986
CC1(C)NN1CCCN1NC1(C)C (centres undefined) | inactive: 1.01
N#C[C@@]12[C@H]3CC=C[C@@H]1N2CC3 (some centres undefined) | inactive: 1.01
CC[C@@H]1/C=C/C=C/C[C@H](C)[C@@H](O)[C@](C)(O)C(=O)[C@H](C)[C@@H](O)[C@H](C)C(=O)[C@H](C)[C@@H](O)[C@H](C)/C=C/C(=O)O[C@H]2[C@@H](C)[C@@H](CC1)O[C@@]1(CC[C@@H](C)[C@@H](C[C@H](C)O)O1)[C@@H]2C | inactive: 1.03
CC(=O)N1CC[N+](C)(C)CC1 | inactive: 1.02
CCNC(=O)[C@H]1O[C@H](n2cnc3c(N)ncnc32)[C@@H](O)[C@@H]1O | inactive: 1.01
COc1ccn(C)c(=O)c1C#N | inactive: 0.932
CC(=O)OC(C)(C)/C=C/C(=O)C(C)(O)[C@H]1[C@H](O)C[C@@]2(C)[C@H]3CC=C4[C@@H](C[C@H](O)C(=O)C4(C)C)[C@]3(C)C(=O)C[C@]12C (some centres undefined) | inactive: 0.985
CO[C@H]1[C@H]2CC[C@@H]1NC2 | inactive: 1.04
N#Cc1c(Cl)c(Cl)c(Cl)c(C#N)c1Cl | inactive: 0.807
CCCCSP(=O)(SCCCC)SCCCC | inactive: 0.969
O=C(NCc1ccccn1)[C@]12CNC[C@H]1COC2 | inactive: 0.992
COC1C(O)C(C)OC(OC2CCC3(C=O)C(CCC4C3CCC3(C)C(C5=CC(=O)OC5)CCC43O)C2)C1O (centres undefined) | inactive: 1.03
Cc1nc(N2CCN(C)CC2)ccc1N | inactive: 1.01
C[C@H]1CN([C@@H](C)CO)C(=O)CCCn2nncc2CO[C@@H]1CN(C)C(=O)Oc1cccc2ccccc12 | inactive: 0.98
NCCc1ccc(C(=O)c2ccccc2)cc1 | inactive: 0.942
CN1C2CCC1CC(OC(=O)C(CO)c1ccccc1)C2.O=S(=O)(O)O (centres undefined) | inactive: 1.2

SMILES | relative growth
CC(=O)[O][PbH2][O]C(C)=O | inactive: 0.901
CN(C)C(=O)CCC(=O)N1C[C@H]2C[C@@H]1CN2 | inactive: 0.989
Cc1c[nH]cn1 | inactive: 1.05
CC1(C)C(=O)C=CC2(C)C1CC(O)C1(C)C2CCC2(C)C(c3ccoc3)OC(=O)C3OC321 (centres undefined) | inactive: 0.797
C[C@H]1CN([C@@H](C)CO)C(=O)CCCn2cc(nn2)CO[C@@H]1CN(C)C(=O)Oc1cccc2ccccc12 | inactive: 1.01
COC(=O)C[C@@H]1CC[C@@H]2NC[C@@H](O)COC[C@H]2O1 | inactive: 0.993
CC12CCC(=O)C=C1C=CC1C2CCC2(C)C1CCC2(O)CCC(=O)[O-].[K+] (centres undefined) | inactive: 0.953
CC1(C)C(O)CC(O)C2(C)C1CC(=O)C1(C)C2CCC2(C)C(c3ccoc3)OC(=O)C3OC321 (centres undefined) | inactive: 1
COC(C)(C)CCC[C@H](C)C/C=C/C(C)=C/C(=O)OC(C)C | inactive: 1.13
CC(C)(O)C(Cl)(Cl)Cl | inactive: 1.04
CN(C)[C@@H]1C(=O)[C@H](C(N)=O)C(=O)[C@@]2(O)C(=O)[C@@H]3C(=O)c4c(O)cccc4[C@@](C)(O)[C@H]3C[C@@H]12 | active: 0.182
CC1(C)CCC(C)(C)c2cc(-c3csc(CC#N)n3)ccc21 | inactive: 1.02
O=C(O)c1cc(Cl)ccc1Cl | inactive: 0.989
CC(=CCn1c[n+](C)c2c(N)ncnc21)CCC1(C)C(C)CCC2(C)C(C)=CCCC21.[Cl-] (centres undefined) | inactive: 1.07
CNCCc1ccc(O)c(O)c1 | inactive: 0.991
CCN1C(=O)/C(=C/c2ccc[nH]2)C(=O)NC1=S | inactive: 1.03
Cc1cc(N(C)C)ccc1C[C@@H](C)N | inactive: 0.993
CC12CCC3C(CC=C4CC(O)CCC43C)C1CCC2=O (centres undefined) | inactive: 0.867
COC(=O)[C@]1(Cc2ccccc2N=[N+]=[N-])N=C(c2ccc(OCCCO)cc2)O[C@@H]1c1ccccc1CN=[N+]=[N-] | inactive: 0.948
CN1C[C@H](C(=O)N[C@]2(C)O[C@@]3(O)[C@@H]4CCCN4C(=O)[C@H](Cc4ccccc4)N3C2=O)C[C@@H]2c3cccc4[nH]cc(c34)C[C@H]21 | inactive: 0.947
CC(=O)O[C@H]1C[C@@H](OC(C)=O)C(C)(C)[C@@H]2C[C@@H](OC(C)=O)[C@]3(C)[C@H](CC[C@@]4(C)[C@H](c5ccoc5)C[C@H]5O[C@@]534)[C@@]12C | inactive: 1.01

SMILES | relative growth
CC(C)C[C@H]1C(=O)N2CCC[C@H]2[C@]2(O)O[C@](NC(=O)[C@@H]3C=C4c5cccc6[nH]c(Br)c(c56)C[C@H]4N(C)C3)(C(C)C)C(=O)N12 | inactive: 1.02
COc1ccc(OC(=O)N(C)C[C@@H]2OCc3ccccc3-c3c(n(C)c4ccccc34)C(=O)N([C@@H](C)CO)C[C@H]2C)cc1 | inactive: 0.994
[N-]=[N+]=NCc1ccccc1C[C@@]1(C(=O)N2CCCCC2)N=C(c2ccc(OCCCO)cc2)O[C@@H]1c1ccccc1N=[N+]=[N-] | inactive: 1.01
C=C(C)[C@H]1CN[C@H](C(=O)O)[C@@H]1CC(=O)O | inactive: 0.864
CCCCCCCCCc1ccc(O)cc1 | inactive: 1.02
COc1ccc(C(=O)O[C@H]2CC[C@@]3(C)[C@@H]4CC[C@H]5[C@]6(O)C[C@H](O)[C@@]7(O)[C@@H](CN8C[C@@H](C)CC[C@H]8[C@@]7(C)O)[C@]6(O)C[C@@]53O[C@]24O)cc1OC | inactive: 1.02
CN1[C@@H]2CC[C@H]1C[C@H](O)C2 | inactive: 1
O=C(O)C[C@@H]1CC[C@H]2NC[C@H](O)COC[C@@H]2O1 | inactive: 0.996
Cn1ncnc2c(=O)n(C)c(=O)nc1-2 | active: 0.0341
CCCCCCCCCCCCCCCC[n+]1ccccc1.[Cl-] | active: 0.0713
Cl.c1cncc(C2CCCCN2)c1 (centres undefined) | inactive: 0.998
COC(=O)[C@H]1O[C@@H]2C[C@H]3O[C@@H](n4cnc5c(N)ncnc54)[C@H](OC)[C@H]3O[C@@]2(O)[C@@H](O)[C@@H]1O | inactive: 0.952
CC(CO)NC(=O)C1C=C2c3cccc4[nH]cc(c34)CC2N(C)C1.O=C(O)C=CC(=O)O (centres undefined) | inactive: 1.1
CCN1C[C@H]2CN(Cc3nccn3C)C[C@H]2C1=O | inactive: 0.995
O=C(O)CC[C@@H](CP(=O)(O)O)C(=O)O | inactive: 0.997
C#CCOS(=O)OC1CCCCC1Oc1ccc(C(C)(C)C)cc1 (centres undefined) | inactive: 0.937
CC12CCC3C(CCC4(O)CC(O)CCC34C=O)C1(O)CCC2C1=CC(=O)OC1 (centres undefined) | inactive: 0.972
C[C@H]1CN([C@@H](C)CO)C(=O)CCCn2cc(nn2)CO[C@H]1CN(C)C(=O)Oc1ccc2ccccc2c1 | inactive: 0.988
O=C1N[C@@H]2C(=C[C@H](O)[C@@H](O)[C@H]2O)c2cc3c(c(O)c21)OCO3 | inactive: 0.913
CC(C)[C@@H](Br)C(=O)NC(N)=O | inactive: 0.986
C[N+](C)(C)CC(=O)[O-].Cl | inactive: 0.997

SMILES | relative growth
N#CC[N+]12CCN(CC1)CC2 | inactive: 0.975
CC(C)[C@H]1CN2CCC[C@H]2[C@@]2(O)O[C@](CC(=O)[C@@H]3C=C4c5cccc6[nH]cc(c56)C[C@H]4N(C)C3)(C(C)C)C(=O)N12 | inactive: 0.997
CC(=O)Nc1ccc(Cl)cc1C | inactive: 0.999
CCC(COC(=O)c1cc(OC)c(OC)c(OC)c1)(c1ccccc1)N(C)C.O=C(O)C=CC(=O)O (centres undefined) | inactive: 0.993
CC1OC(OC2CC(O)C3(CO)C4C(O)CC5(C)C(C6=CC(=O)OC6)CCC5(O)C4CCC3(O)C2)C(O)C(O)C1O.O.O.O.O.O.O.O.O (centres undefined) | inactive: 1.01
O=C(O)CCl | inactive: 0.992
CNC(=O)Oc1ccc2c(c1)C1(C)CCN(C)C1N2C.O=C(O)c1ccccc1O (centres undefined) | inactive: 1.15
CN(C)C(=O)CN1C[C@H]2CON[C@@H]2C1 | inactive: 1.01
Cc1ccc2[nH]cc(C[C@@H](C)N)c2c1 | inactive: 1.03
CC(=O)[O][Cd][O]C(C)=O | inactive: 0.96
CCN1C[C@]2(C)CC[C@H](O)[C@@]34[C@@H]5C[C@H]6[C@H](O)[C@@H]5[C@](O)(C[C@@H]6OC)[C@](O)([C@@H](OC)[C@H]23)[C@@H]14 | inactive: 0.988
CCC[C@@H](CN)c1ccc(F)cc1 | inactive: 1.03
COC(=O)[C@H]1[C@H](CO)[C@H]2Cn3c(ccc(C4=CCCC4)c3=O)[C@@H]1N2S(=O)(=O)c1cn(C)cn1 | inactive: 1
C[C@@H]1CN([C@@H](C)CO)C(=O)CCCn2cc(nn2)CO[C@@H]1CN(C)C(=O)Oc1cccc2ccccc12 | inactive: 0.977
NC(=O)CN1C[C@H](O)CC1=O | inactive: 0.975
CC1=NCCc2c1[nH]c1cc(O)ccc21.Cl.O.O | inactive: 1
NCCc1ccc(S(=O)(=O)F)cc1 | inactive: 0.957
COP(=S)(OC)Oc1ccc([N+](=O)[O-])cc1 | inactive: 1.07
C[C@@H]1C(=O)O[C@H]2[C@H](O)[C@@]34[C@@H]5OC(=O)[C@@]3(O[C@@H]3OC(=O)[C@H](O)[C@@]34[C@H](C(C)(C)C)[C@H]5O)[C@@]12O | inactive: 1.03
O=C1CO[C@]2(CNCCOC2)CN1CC1CC1 | inactive: 0.98
OCC[N+]12CN3CN(CN(C3)C1)C2 | inactive: 1.03

From the supplement of paper PMC9446081
